# Experimental data published in paper PMC4336329 (PLoS ONE, 2015).
# About 2,200 (0.71%) of roughly 310,000 compounds showed an effect of 50% or more. The effect is printed as a negative number. This is one part of the list.
# Molecular target: human ether-à-go-go-related gene (hERG) potassium channel (human, UniProt Q12809)
# Test: primary screen, population patch clamp on CHO cells stably expressing hERG
# Chain of human ether-à-go-go-related gene (hERG) potassium channel (Q12809 whole entry, looked up): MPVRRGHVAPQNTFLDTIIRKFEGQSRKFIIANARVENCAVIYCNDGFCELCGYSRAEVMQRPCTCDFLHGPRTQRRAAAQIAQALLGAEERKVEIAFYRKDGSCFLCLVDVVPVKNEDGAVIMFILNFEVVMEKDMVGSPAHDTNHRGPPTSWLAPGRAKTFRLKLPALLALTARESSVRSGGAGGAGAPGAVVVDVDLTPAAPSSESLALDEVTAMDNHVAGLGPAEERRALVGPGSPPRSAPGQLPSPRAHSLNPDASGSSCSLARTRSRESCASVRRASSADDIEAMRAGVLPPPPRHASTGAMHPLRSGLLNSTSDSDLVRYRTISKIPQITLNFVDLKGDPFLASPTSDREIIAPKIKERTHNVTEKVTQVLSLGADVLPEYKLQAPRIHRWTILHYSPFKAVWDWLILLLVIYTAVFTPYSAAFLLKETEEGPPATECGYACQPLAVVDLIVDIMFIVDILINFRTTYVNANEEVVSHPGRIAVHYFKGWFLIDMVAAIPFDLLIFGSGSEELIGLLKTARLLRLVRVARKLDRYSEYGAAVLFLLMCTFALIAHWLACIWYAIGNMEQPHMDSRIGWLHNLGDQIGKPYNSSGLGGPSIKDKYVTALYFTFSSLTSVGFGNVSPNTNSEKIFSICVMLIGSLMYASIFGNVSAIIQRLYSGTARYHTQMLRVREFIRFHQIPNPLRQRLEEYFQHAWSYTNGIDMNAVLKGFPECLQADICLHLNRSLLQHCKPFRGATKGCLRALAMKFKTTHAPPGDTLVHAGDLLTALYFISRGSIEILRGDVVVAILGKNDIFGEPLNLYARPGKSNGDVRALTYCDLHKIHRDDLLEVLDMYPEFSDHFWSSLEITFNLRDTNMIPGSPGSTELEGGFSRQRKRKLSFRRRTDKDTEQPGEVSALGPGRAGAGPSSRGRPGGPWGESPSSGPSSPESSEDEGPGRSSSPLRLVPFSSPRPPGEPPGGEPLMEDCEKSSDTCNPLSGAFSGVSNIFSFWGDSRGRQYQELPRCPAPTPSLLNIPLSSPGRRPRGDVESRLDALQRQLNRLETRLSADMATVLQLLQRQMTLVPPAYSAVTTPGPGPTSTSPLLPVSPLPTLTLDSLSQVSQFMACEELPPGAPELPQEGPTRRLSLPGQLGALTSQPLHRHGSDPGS
row,SMILES,"hERG current change (%, negative = inhibition) at 1uM"
1,CCN1C(=O)[C@H]2[C@@H](c3ccc(-c4cccc(Cl)c4)cc3)N[C@@](Cc3ccccc3)(C(=O)OC)[C@H]2C1=O.O=C(O)C(F)(F)F,0.443%
2,COc1cccc(CNC(=O)CCNS(=O)(=O)c2ccc(Br)s2)c1,7.67%
3,O=C(/C=C/c1ccc(N2CCOCC2)cc1)c1ccccc1,9.84%
4,CCCCC/C=C/C1=CC(=O)C[C@H](c2ccc3c(c2)OCO3)C1,6.83%
5,COP(=O)(OC)C(O)C(Cl)(Cl)Cl (stereo not drawn),17.5%
6,CCN(C(=O)C(C)N1C(=O)/C(=C/c2cccs2)SC1=S)C1CCS(=O)(=O)C1 (stereo not drawn),-0.641%
7,CCN(CC)C(=O)CSc1nnc(-c2ccccn2)n1-c1ccc(C)c(C)c1,-4.22%
8,CC(=O)O[C@H]1CC[C@@]2(C)C(=CC[C@@H]3[C@@H]2CC[C@]2(C)C(=O)CC[C@@H]32)C1,13.1%
9,O=C(OCc1cccc([N+](=O)[O-])c1)c1ccncc1,10.6%
10,COCCNC(=O)CCn1nc(-c2ccc(C)cc2)ccc1=O,8.85%
11,COc1ccc(NC2CCCN(C(=O)C3(C)CCCCC3)C2)cc1OC (stereo not drawn),8.79%
12,CC(C)C(C(=O)NCC1CCCO1)N(C(=O)CNS(=O)(=O)c1ccc(F)cc1)c1ccccc1 (stereo not drawn),4.58%
13,O=C(Cn1c(=O)n(Cc2ccccc2)c(=O)c2cc(Cl)ccc21)NCC1CCCO1 (stereo not drawn),11%
14,COc1cc(OC)c(OC)cc1CN1CCCC(C(=O)N2CCCCC2)C1.O=C(O)C(=O)O (stereo not drawn),6.47%
15,O=S1(=O)N=C(N/N=C/c2ccco2)c2ccccc21,13.8%
16,CSc1ncc(S(=O)(=O)c2ccccc2)c(=O)[nH]1,2.16%
17,COc1cc(OC)c(Nc2cc(C)nc3nc(C)nn23)cc1Cl,12.9%
18,Cc1[nH]nc(-c2ccc(OCc3cnn(-c4ccccc4)c3)cc2O)c1Oc1ccc(Cl)cc1,10.2%
19,Cc1ccc(Nc2nnc(SCC(=O)c3c(N)n(C4CC4)c(=O)[nH]c3=O)s2)cc1C,13.3%

row,SMILES,"hERG current change (%, negative = inhibition) at 1uM"
1,CC1(C)OC(=O)C(=NNc2ccccc2)C(=O)O1,5.61%
2,CN1C2=CC=CC=CC2=[N+](C)C12C([N+](=O)[O-])=CC(=[N+]([O-])[O-])C=C2[N+](=O)[O-] (stereo not drawn),9.17%
3,CCN(CC)C(=O)CN(C)S(=O)(=O)c1cccc2nsnc12,10.6%
4,CN1CCN(c2ccccc2NC(=O)c2cc3ccccc3o2)CC1,-19.3%
5,CCOc1ccc(NC(=S)NC(C)c2cccs2)cc1 (stereo not drawn),8.67%
6,O=C(NCc1ccco1)C1CCCN1C(=O)Nc1cccc(Cl)c1 (stereo not drawn),8.37%
7,COc1ccc(-c2nc3ccccc3c(=O)n2-c2cccnc2)cc1,5.93%
8,Cc1sc2ncn(-c3ccccc3)c(=O)c2c1C,15.1%
9,O=C(Nc1ccccc1C(F)(F)F)c1ccc(F)c(S(=O)(=O)N2CCOCC2)c1,7.47%
10,COc1ccc(Br)c(C(=O)Nc2nc3ccccc3[nH]2)c1,13.8%
11,CCOC(=O)C(=O)Nc1ccc(S(=O)(=O)Nc2ncccn2)cc1,3.04%
12,O=C(CN1CCOCC1)N/N=C/c1cccc2ccccc12,16.2%
13,Cc1ccc(NC(=O)c2ccccc2)cc1-n1cnnn1,15.5%
14,O=C(CCl)NC(Cc1c[nH]c2ccc(OCc3ccccc3)cc12)C(=O)O (stereo not drawn),14.3%
15,COc1ccccc1N1CCN(C(=S)Nc2ccccc2)CC1,13.5%
16,CC(C)n1nc(C(=O)N2CCN(S(=O)(=O)c3cccs3)CC2)c2ccccc2c1=O,3.74%
17,Cc1ccc(C2C(C#N)=C(N)Oc3n[nH]c(-c4cccs4)c32)cc1 (stereo not drawn),16.7%
18,COc1ccc(-c2nc(SCc3ccccc3)n(S(C)(=O)=O)n2)cc1,-6.53%
19,COc1cccc(/C=C/C(=O)c2ccc3c(c2)OCCO3)c1OC,9.53%

row,SMILES,"hERG current change (%, negative = inhibition) at 1uM"
1,COCCN(C(=O)c1ccc(C)o1)c1c(N)n(CC(C)C)c(=O)[nH]c1=O,-18.4%
2,CCCc1cc(Nc2ccccc2)n2ncnc2n1,11.2%
3,Cc1cc(C)c(C2C3=C(Nc4c2c(C)nn4-c2ccccn2)c2ccccc2C3=O)c(C)c1 (stereo not drawn),-2.03%
4,N#C/C(=C\c1cccnc1)C(=O)Nc1ccc(C(=O)O)cc1,12.2%
5,Cn1c(SCCN2CCCCC2)nnc1-c1ccccc1Br.O=C(O)C(=O)O,12.2%
6,Cc1ccc(C)c(NP(=O)(Oc2ccccc2)Oc2ccccc2)c1,12.2%
7,Nc1cc(C(=O)OCC(=O)N2CCOCC2)ccc1Cl,17.7%
8,Cc1cc(C)c2cc(C(=O)N3CCc4ccccc4C3)[nH]c2c1,1.19%
9,CN1CCN(C(=O)C2CCCN(S(=O)(=O)c3ccc(F)cc3)C2)CC1 (stereo not drawn),17.8%
10,CO/N=C/C(NC(=O)c1ccc(C(F)(F)F)cc1)C(=O)OC (stereo not drawn),19.5%
11,O=C1Nc2ccccc2/C1=N\N=C\c1ccc(O)c(O)c1,9.87%
12,O=C(CNS(=O)(=O)c1ccc(Br)s1)N1CCN(c2ccc(F)cc2)CC1,-1.3%
13,COC(=O)C1CCN(c2ccc(Cl)nn2)CC1,16.3%
14,CC(C)(C)NC(=S)NNC(=O)c1ccncc1,4.78%
15,COCCNC(=O)CSc1nnc2c(Cl)cc(Cl)cn12,-3.91%
16,S=C(NNc1ccnc2cc(Cl)ccc12)Nc1ccc(Cl)cc1Cl,19.7%
17,Cc1ccc(CNC(=O)C2CC(=O)N(C3CCCCCC3)C2)cc1 (stereo not drawn),9.48%
18,CC(C)(C)Sc1nc(O)cc(=O)[nH]1,-6.96%
19,NS(=O)(=O)c1ccc(NC(=S)NC2CCCCC2)cc1,12.9%
